From PubChem BioAssay AID1745853 (National Center for Advancing Translational Sciences (NCATS), 2022) come the findings set out here.

Test in all cases: Primary Screen for Target Class Profiling of Small Molecule Inhibitors of Methyltransferases
Assay [1] concerns the target Glycine N-methyltransferase (Homo sapiens) (UniProt Q14749). The conditions noted are these: purified enzyme, MTase-Glo SAH luminescence; measured here: GNMT inhibition; at 40 µM; stronger effect = lower value. In short, it runs like this: (§1)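 Each enzyme was assayed with SAM and its substrate. SAH formation detected by MTase-Glo luminescence; single-point 40 uM screen[…].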

The target of assay [2] is Guanidinoacetate N-methyltransferase (Homo sapiens) (UniProt Q14353). The conditions noted are these: purified enzyme, MTase-Glo SAH luminescence; measured here: GAMT inhibition; at 40 µM; stronger effect = lower value. The method, boiled down:
as §1

Assay [3] deals with Histamine N-methyltransferase (Homo sapiens) (UniProt P50135). The conditions noted are these: purified enzyme, MTase-Glo SAH luminescence; measured here: HNMT inhibition; at 40 µM; stronger effect = lower value. The method, boiled down:
as §1

Assay [4] has as its target Nicotinamide N-methyltransferase (Homo sapiens) (UniProt P40261). To be noted: purified enzyme, MTase-Glo SAH luminescence; measured here: NNMT inhibition; at 40 µM; stronger effect = lower value. In short, it runs like this:
as §1

In assay [5] the target is Phenylethanolamine N-methyltransferase (Homo sapiens) (UniProt P11086). To be noted: purified enzyme, MTase-Glo SAH luminescence; measured here: PNMT inhibition; at 40 µM; stronger effect = lower value. In short, it runs like this: as §1

The list shows a part of the results. The main result of the screen is listed elsewhere. These columns were measured beside it and carry no call.
% is scaled to controls: 0 for no effect and ±100 for the full control effect.

Regarding `CCOC(=O)c1ccccc1NC(=O)N1Cc2ccccc2-n2cccc2C1c1cccs1` (stereo not drawn), the activity change, negative = inhibition was 2.66% in assay [1]; 0.724% in assay [2]; 1.02% in assay [3]; 0.132% in assay [4]; 6.07% in assay [5].

On to `CC(C)C(=O)O[C@H]1[C@@H]2[C@H](C)C(=O)O[C@@H]2C[C@@H](C)[C@@H]2C=CC(=O)[C@]21C`, for which the activity change, negative = inhibition in assay [1] is -8.27%; in assay [2], -5.33%; in assay [3] it was 1.58%; in assay [4] it was -13%; in assay [5] it was -11.5%.

Take `COc1ccc(OC)c(NC(=O)N2Cc3ccccc3-n3cccc3C2c2cc(F)cc(F)c2)c1` (stereo not drawn): the activity change, negative = inhibition turned out to be 10.4% in assay [1]; 5.3% in assay [2]; 10.5% in assay [3]; 4.17% in assay [4]; 5.03% in assay [5].

Turning to `CC(=O)OC1CC(O)C(C)(C)C2CC(OC(C)=O)C3(C)C(CCC4(C)C(c5ccoc5)C(=O)C5OC543)C12C` (stereo not drawn), the activity change, negative = inhibition in assay [1] is -2.17%; in assay [2], 2.49%; in assay [3], -1.63%; in assay [4], -11.4%; in assay [5], 1.88%.

Regarding `CCc1ccc(C2c3cccn3-c3ccccc3CN2C(=O)Nc2ccc(C)cc2C)cc1` (stereo not drawn), the activity change, negative = inhibition in assay [1] stood at 9.57%; in assay [2] it was 2.95%; in assay [3] it was 3.11%; in assay [4], 3.04%; in assay [5], 7.54%.

`O=C(NCc1ccccc1)N1Cc2ccccc2-n2cccc2C1c1ccc(F)cc1` (stereo not drawn): the activity change, negative = inhibition in assay [1] worked out at 0.539%; in assay [2], 0%; in assay [3] it was 4.99%; in assay [4], 3.96%; in assay [5], 7.37%.

In the case of `COCCCNC(=O)N1Cc2ccccc2-n2cccc2C1c1ccccc1` (stereo not drawn), the activity change, negative = inhibition in assay [1] was 13.3%; in assay [2], 1.57%; in assay [3] it was 3.95%; in assay [4] it was 6.99%; in assay [5] it was 10.5%.

As to `Cc1cccc(C2c3cccn3-c3ccccc3CN2C(=O)Nc2ccc(C)cc2C)c1` (stereo not drawn), the activity change, negative = inhibition was 4.77% in assay [1]; 0.339% in assay [2]; 2.46% in assay [3]; -0.655% in assay [4]; -0.429% in assay [5].

For `COc1ccc(NC(=O)N2Cc3ccccc3-n3cccc3C2C)cc1OC` (stereo not drawn), the activity change, negative = inhibition in assay [1] is -0.059%; in assay [2], 3.77%; in assay [3], -1.46%; in assay [4] it was -5.64%; in assay [5], 1.09%.

For the molecule `COc1ccc(NC(=O)N2Cc3ccccc3-n3cccc3C2c2ccccc2C)c(OC)c1` (stereo not drawn), the activity change, negative = inhibition is 9.19% in assay [1]; 0.061% in assay [2]; 3.45% in assay [3]; -1.17% in assay [4]; 4.16% in assay [5].

In the case of `COC(=O)c1ccc(Cl)cc1NC(=O)N1Cc2ccccc2-n2cccc2C1c1ccccc1` (stereo not drawn), the activity change, negative = inhibition in assay [1] is 4.36%; in assay [2] it was -1.11%; in assay [3] it was 2.11%; in assay [4], -2.42%; in assay [5], -0.326%.

Take `CCOc1ccc(NC(=O)N2Cc3ccccc3-n3cccc3C2c2ccc(OC)c(OC)c2)cc1` (stereo not drawn): the activity change, negative = inhibition is 7.96% in assay [1]; 4.14% in assay [2]; 3.27% in assay [3]; -0.791% in assay [4]; 3.63% in assay [5].

Take `COC(=O)C12C(=O)C(C)(O)C(=O)C1(C)C(C)=CC1C3(C=O)CCC(OC(C)=O)C(C)(C)C3CCC12C` (stereo not drawn): the activity change, negative = inhibition in assay [1] is -2.86%; in assay [2] it was -3.37%; in assay [3], 0.708%; in assay [4], -16.4%; in assay [5], 1.92%.

Consider `CCOC(=O)CNC(=O)N1Cc2ccccc2-n2cccc2C1c1ccc(OC)cc1` (stereo not drawn), for which the activity change, negative = inhibition in assay [1] is 7.5%; in assay [2], 1.43%; in assay [3] it was -1.58%; in assay [4], -1.48%; in assay [5], 0.808%.

`C[C@H]1O[C@@H](n2cnc3c(N)ncnc32)C[C@@H]1O`: the activity change, negative = inhibition in assay [1] is -7.54%; in assay [2], -19.1%; in assay [3], 4.32%; in assay [4], -19.1%; in assay [5] it was -5.97%.

With `O=C(NC1CCCC1)N1Cc2ccccc2-n2cccc2C1c1ccc(F)cc1` (stereo not drawn), the activity change, negative = inhibition in assay [1] was -0.019%; in assay [2] it was 0%; in assay [3] it was 1.22%; in assay [4], -7.16%; in assay [5] it was 4.57%.

For `Cc1ccc(C2c3cccn3-c3ccccc3CN2C(=O)Nc2ccccc2F)cc1` (stereo not drawn), the activity change, negative = inhibition was -1.76% in assay [1]; 0% in assay [2]; 2.94% in assay [3]; 2.04% in assay [4]; 4.92% in assay [5].

As to `c1ccc(C2(c3ccccc3)OC[C@@H]([C@H]3CCCCN3)O2)cc1`, the activity change, negative = inhibition in assay [1] is -0.892%; in assay [2], -4.12%; in assay [3] it was -7.02%; in assay [4], -16.1%; in assay [5] it was -12.2%.

As for `C/C=C(\C)C(=O)OC1C2C3(C)CCC(OC4CC(OC)C(OC5OC(C)C(O)C(OC)C5O)C(C)O4)CC3CCC23OC32CCC(C(C)=O)C2(C)C1OC(=O)/C(C)=C/C` (stereo not drawn), the activity change, negative = inhibition in assay [1] was 3.98%; in assay [2] it was 4.35%; in assay [3], 5.72%; in assay [4], -3.52%; in assay [5], 3.12%.

`CN1CCC(c2c[nH]c3ccc(O)cc23)CC1`: the activity change, negative = inhibition in assay [1] was 4.2%; in assay [2], 10.6%; in assay [3], -25%; in assay [4] it was -1.75%; in assay [5], 11.9%.

Consider `CC(=O)C1=C(O)[C@@H]2[C@H]3c4c[nH]c5cccc(c45)C[C@H]3C(C)(C)N2C1=O`, for which the values for the activity change, negative = inhibition in assay [2], in assay [4] and in assay [5] were -7.4%, -19.2% and -53.6%, respectively.

Turning to `Cc1ccccc1C1c2cccn2-c2ccccc2CN1C(=O)NCCc1ccccc1` (stereo not drawn), the activity change, negative = inhibition is 9.94% in assay [1]; 0.3% in assay [2]; 1.48% in assay [3]; -2.19% in assay [4]; 4.63% in assay [5].

For `COc1ccc(OC)c(NC(=O)N2Cc3ccccc3-n3cccc3C2c2cccs2)c1` (stereo not drawn), the activity change, negative = inhibition in assay [1] came out at 9.77%; in assay [2], 2.5%; in assay [3] it was 3.92%; in assay [4], 7.32%; in assay [5], 9.16%.

Regarding `CCOC(=O)c1ccccc1NC(=O)N1Cc2ccccc2-n2cccc2C1c1cc(F)cc(F)c1` (stereo not drawn), the activity change, negative = inhibition in assay [1] came out at 12.2%; in assay [2], 0%; in assay [3], 11.8%; in assay [4] it was 6.75%; in assay [5], 8.66%.

For `C1=C2CCCN[C@H]2[C@@H]2C[C@H]1[C@H]1CCCCN1C2`, the activity change, negative = inhibition in assay [1] is 3.38%; in assay [2], 8.65%; in assay [3], 1.05%; in assay [4] it was -9.23%; in assay [5], 4.32%.

Consider `O=C(Nc1ccc(F)cc1)N1Cc2ccccc2-n2cccc2C1c1ccccc1Cl` (stereo not drawn), for which the activity change, negative = inhibition in assay [1] was 5.81%; in assay [2], 0%; in assay [3], 5.6%; in assay [4], -6.09%; in assay [5], -3.62%.

For `O=C(NCc1ccco1)N1Cc2ccccc2-n2cccc2C1c1ccc(F)cc1` (stereo not drawn), the activity change, negative = inhibition was -0.984% in assay [1]; 4.35% in assay [2]; -2.13% in assay [3]; -1.06% in assay [4]; 0.847% in assay [5].

As to `CC(N)Cc1c[nH]c2ccc(OCc3cccs3)cc12` (stereo not drawn), the activity change, negative = inhibition was 1.6% in assay [1]; 6.28% in assay [2]; -19.5% in assay [3]; -13.1% in assay [4]; -1.16% in assay [5].

For `CC(=O)NCCCOc1ccc(C(=O)N2CCC(N3C(=O)CCc4ccccc43)CC2)cc1`, the activity change, negative = inhibition in assay [1] was 1.97%; in assay [2], -2.83%; in assay [3] it was 0.932%; in assay [4] it was -16.6%; in assay [5] it was -8.75%.

As to `Oc1ccc2c3c1O[C@H]1c4[nH]c5ccccc5c4C[C@@]4(O)C(C2)N(CC2CC2)CCC314` (stereo partly drawn), the activity change, negative = inhibition in assay [1] is -8%; in assay [2] it was 5.55%; in assay [3] it was -3.19%; in assay [4] it was -5.29%; in assay [5] it was 6.14%.

Take `CCC1c2cccn2-c2ccccc2CN1C(=O)Nc1ccc(Br)cc1F` (stereo not drawn): the activity change, negative = inhibition in assay [1] was -1.28%; in assay [2] it was 0%; in assay [3] it was -3.56%; in assay [4] it was -1.87%; in assay [5], 3.01%.
